In PubChem BioAssay (NCATS):
Inconclusive results, whose numbers are uncertain, are shown with a selection of clear calls. Where the call is inconclusive, the potency comes from a doubtful curve fit. Active and inactive are the calls of the source. Calls come from the whole dose curve; as a rule, active = well fitted cell-killing curve with a large enough effect; inconclusive = small, poorly fitted or top-dose-only effect, or effect the other way; inactive = no such curve, though single readings can be large or run the other way.

Experiments:
[1] = Viability qHTS for spleen associated tyrosine kinase inhibitor (SYKi) naive MV4-11 cells (AID 1963823); conditions: MV4-11 AML viability, CellTiter-Glo luminescence, 72 h; series mostly up to 45 µM; note: nearly all actives have a fitted effect of over 40% in size
Procedure, shortened: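 Read-out: CellTiter-Glo luminescence. Exposure: 72 hr, 37 C, 5% CO2, 95% humidity. Cells: MV4-11 without SYK inhibitor history, 500/well, qHTS format.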

[2] = Viability qHTS for spleen associated tyrosine kinase inhibitor (SYKi) drug resistant MV4-11 cells (AID 1963824); note: nearly all actives have a fitted effect of over 35% in size
Procedure, shortened: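 SYK inhibitor-resistant MV4-11 AML cells, 500 per well, added to predispensed compounds and incubated 72 hr at 37 C, 5% CO2. Viability measured by CellTiter-Glo luminescence after 10 min at room temperature.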
Potency is the fitted concentration of half-maximal effect; tags give direction and shape of the fitted curve.

## CC(=O)NCc1cccc(OC[C@@H](O)CNCCc2ccc(NS(=O)(=O)c3ccccc3)cc2)c1
[1]
  Potency: inconclusive: 20.6 µM [cytotoxic, partial curve]
[2]
  Potency: inconclusive: 18.4 µM [cytotoxic, single point]

## COc1ccc(/C=C/C(=O)O[C@@H]2[C@@H](OC(C)=O)[C@@H](OC(C)=O)[C@H](O[C@H]3[C@@H]4C=CO[C@@H](O[C@@H]5O[C@H](CO)[C@@H](O)[C@H](O)[C@H]5O)[C@@H]4[C@@]4(CO)O[C@@H]34)O[C@H]2C)cc1O
[1]
  Potency: inactive
[2]
  Potency: inconclusive: 7.69 µM [cytotoxic, partial curve, poor fit]

## c1nc(NCC2CCOC2)c2cc(-c3ccc4c(c3)OCO4)ccc2n1 (stereo not given)
[1]
  Potency: active: 20.6 µM
[2]
  Potency: active: 18.4 µM

## OC[C@H]1O[C@@H](Oc2cc(O)cc(/C=C/c3ccc(O)cc3)c2)[C@H](O)[C@@H](O)[C@@H]1O
[1]
  Potency: inconclusive: 29.1 µM [cytotoxic, single point]
[2]
  Potency: inconclusive: 23.1 µM [cytotoxic, single point]

## O=C1CCCC2=C1C(c1ccccc1I)N=C(Nc1nc3ccccc3o1)N2 (stereo not given)
[1]
  Potency: inconclusive: 3.66 µM [cytotoxic, full curve]
[2]
  Potency: inconclusive: 1.84 µM [cytotoxic, full curve]

## COc1c2c(c(C)c3c1C(=O)OC3)OC1(C)CC(O)C34OC(OC)(CC(O)C3(C)C1C2)OC4(C)C (stereo not given)
[1]
  Potency: inconclusive: 11.2 µM [cytotoxic, single point]
[2]
  Potency: active: 10 µM

## CC(=O)CC1CCC(C(C)C(=O)OCC(O)CO)O1 (stereo not given)
[1]
  Potency: inactive
[2]
  Potency: inconclusive: 10.3 µM [cytotoxic, partial curve, poor fit]

## CCOc1cc(/C=C2/C(=O)N(c3ccccc3)N=C2C)cc(Cl)c1OCC(=O)OC
[1]
  Potency: inconclusive: 4.68 µM [cytotoxic, partial curve, poor fit]
[2]
  Potency: inconclusive: 3.72 µM [cytotoxic, full curve, poor fit]

## CCOc1ccc(NC(C)=O)cc1
[1]
  Potency: inactive
[2]
  Potency: inactive

## COc1cc2nc(N3CCN(C(=O)COc4c(OC)cccc4C(C)C)CC3)nc(N)c2cc1OC
[1]
  Potency: active: 20.6 µM
[2]
  Potency: inconclusive: 18.4 µM [cytotoxic, partial curve]
